# Source: the supplement of paper PMC7826260
# This is one part of the list. Viral Rep nickase domains cut single-stranded DNA in vitro (1 h at 37 °C, 3 µM enzyme); the outer parts of the 90-letter strands are left off. A value is the log2 ratio of uncut reads to the pool without enzyme; more negative means more cut, near 0 not cut, and no call is made. Reads are scaled to the total; where an enzyme cuts many sequences, the uncut ones exceed 0.
# Legend:
# Assay in all cases: uncleaved DNA left, log2 of reads against the no-enzyme library (log2 ratio); higher = less cleavage (more negative = more Rep cleavage of the k-mer); sequences stand for … in CTCGTCCG…ACCGGAGA
# [1] = test system: T1, Rep nickase domain of Muscovy duck circovirus
# T1 sequence (residues 1-111, tag not shown): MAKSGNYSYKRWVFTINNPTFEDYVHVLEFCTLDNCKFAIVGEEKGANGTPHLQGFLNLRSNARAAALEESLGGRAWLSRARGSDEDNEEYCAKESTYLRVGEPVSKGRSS
# Protocol: (§1)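 A pool of 90-nt single-stranded DNAs with seven random bases just before the constant AC of the nick site (name = the seven bases) was cut by 3 µM recombinant His6-SUMO-tagged Rep nickase domain (300 nM DNA, 50 mM HEPES pH 8.0, 50 mM NaCl, 1 mM MnCl2, 1 h, 37 °C, three replicates). Uncut DNA was amplified and sequenced.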
# [2] = test system: T2, Rep nickase domain of banana bunchy top virus
# T2 sequence (residues 1-94, tag not shown): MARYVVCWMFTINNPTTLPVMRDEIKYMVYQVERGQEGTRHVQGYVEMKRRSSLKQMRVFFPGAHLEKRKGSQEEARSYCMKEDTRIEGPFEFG
# Protocol: as §1
# [3] = test system: T3, Rep nickase domain of cabbage leaf curl virus
# T3 sequence (residues 1-116, tag not shown): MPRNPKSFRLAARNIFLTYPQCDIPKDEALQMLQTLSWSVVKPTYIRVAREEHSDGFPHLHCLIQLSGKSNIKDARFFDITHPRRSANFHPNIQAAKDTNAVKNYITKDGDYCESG
# Protocol: as §1
# [4] = test system: T4, Rep nickase domain of chickpea chlorotic dwarf virus
# T4 sequence (residues 1-124, tag not shown): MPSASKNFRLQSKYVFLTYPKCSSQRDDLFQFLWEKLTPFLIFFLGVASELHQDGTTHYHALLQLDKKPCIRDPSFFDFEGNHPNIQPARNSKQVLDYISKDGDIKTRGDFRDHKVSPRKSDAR
# Protocol: as §1
# [5] = test system: T5, Rep nickase domain of faba bean necrotic yellows virus
# T5 sequence (residues 1-98, tag not shown): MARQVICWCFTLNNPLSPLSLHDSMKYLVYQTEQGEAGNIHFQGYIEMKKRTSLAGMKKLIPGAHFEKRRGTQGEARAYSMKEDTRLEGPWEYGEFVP
# Protocol: as §1
# [6] = test system: T6, Rep nickase domain of maize striate mosaic virus
# T6 sequence (residues 1-117, tag not shown): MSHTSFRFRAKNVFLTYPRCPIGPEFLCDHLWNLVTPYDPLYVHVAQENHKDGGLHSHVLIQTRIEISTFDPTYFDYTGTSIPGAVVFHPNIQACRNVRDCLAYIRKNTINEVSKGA
# Protocol: as §1
# [7] = test system: T7, Rep nickase domain of porcine circovirus 2
# T7 sequence (residues 2-116, tag not shown): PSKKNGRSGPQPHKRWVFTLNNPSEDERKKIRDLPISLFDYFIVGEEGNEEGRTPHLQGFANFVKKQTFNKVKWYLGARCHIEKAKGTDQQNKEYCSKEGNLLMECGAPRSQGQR
# Protocol: as §1
# [8] = test system: T8, Rep nickase domain of tomato golden mosaic virus
# T8 sequence (residues 1-124, tag not shown): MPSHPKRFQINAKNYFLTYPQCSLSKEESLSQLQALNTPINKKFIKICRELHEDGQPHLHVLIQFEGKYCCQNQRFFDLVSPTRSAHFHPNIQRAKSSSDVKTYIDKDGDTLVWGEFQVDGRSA
# Protocol: as §1
# [9] = test system: T9, Rep nickase domain of tomato yellow leaf curl virus
# T9 sequence (residues 1-136, tag not shown): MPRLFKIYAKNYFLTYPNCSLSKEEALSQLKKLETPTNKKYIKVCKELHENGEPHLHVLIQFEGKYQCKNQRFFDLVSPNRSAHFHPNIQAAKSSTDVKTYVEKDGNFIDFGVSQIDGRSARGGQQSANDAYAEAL
# Protocol: as §1
# [10] = test system: T10, Rep nickase domain of wheat dwarf virus
# T10 sequence (residues 1-137, tag not shown): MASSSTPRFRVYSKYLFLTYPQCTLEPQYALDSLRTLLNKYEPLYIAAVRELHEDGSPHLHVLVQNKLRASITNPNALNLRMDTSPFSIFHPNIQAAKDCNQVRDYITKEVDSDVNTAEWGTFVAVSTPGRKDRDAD
# Protocol: as §1
Sequence,uncleaved DNA left (log2) [1],uncleaved DNA left (log2) [2],uncleaved DNA left (log2) [3],uncleaved DNA left (log2) [4],uncleaved DNA left (log2) [5],uncleaved DNA left (log2) [6],uncleaved DNA left (log2) [7],uncleaved DNA left (log2) [8],uncleaved DNA left (log2) [9],uncleaved DNA left (log2) [10]
AGGTCAG,0.109,0.151,0.0873,0.843,0.0816,0.698,0.219,0.13,0.169,0.087
CCCGATA,-0.15,0.0264,0.0152,-0.651,0.113,-0.412,0.102,0.0903,0.0124,0.0395
GGGGAGA,0.123,0.217,0.906,2.02,0.049,2.35,0.222,0.193,0.139,0.219
TAGGCGT,-0.0495,-0.0933,-0.839,-0.965,-0.0529,-1,-0.208,-0.129,-0.0763,-0.191
AAAACTA,-0.0188,-0.00912,-0.252,-2.34,-0.0178,-0.587,-0.136,0.0607,0.0092,-0.0511
ACGTTAT,-0.118,-0.027,-0.0815,-0.716,0.0998,-0.453,-1.54,0.0669,-0.147,0.0298
TCATTAC,-0.0848,-0.108,-0.354,-1.85,-0.0442,-1.34,-0.306,-0.212,-0.0906,-0.2
TCTCTGA,-0.105,-0.0679,0.176,-0.014,-0.0266,-0.0248,-0.0429,-0.0132,-0.109,0.0619
TACATGG,0.104,0.0187,-0.015,0.158,-0.082,-0.433,0.0782,0.0626,-0.0404,0.0152
CGGTCGT,0.0739,0.0226,-0.153,-0.0831,0.0156,-0.377,-0.053,-0.0265,0.121,0.0163
GGAACAC,0.0573,0.0617,0.85,1.97,-0.0222,2.16,0.191,-0.0636,0.0135,0.221
CGTACAC,0.093,0.124,0.231,-0.00801,0.136,-0.143,0.0728,0.0509,0.18,0.162
CTGAAGA,0.147,0.0583,-0.182,-0.139,0.228,-1.01,0.211,0.0481,0.0623,0.0501
GTAGATA,0.0894,0.164,0.342,0.845,0.15,1.6,0.199,0.144,0.136,0.141
AAGTGGT,-0.171,-0.147,0.132,1.32,-0.135,1.75,-3.62,0.084,-0.166,-0.0676
TAACGAG,-0.0346,-0.0151,-0.316,-0.643,-0.0466,-0.893,0.117,-0.148,-0.0971,-0.0114
TCCCTGA,0.191,-0.0075,0.285,0.0976,0.0523,0.0381,-0.0314,0.123,0.0715,0.147
CTAGACA,0.0366,0.0707,0.253,-0.998,-0.00145,0.0706,0.0405,-0.0232,0.0164,0.156
GGGCTTA,-0.021,-0.0309,0.821,1.73,-0.0172,2.12,0.152,-0.0789,0.119,-0.0636
CAGATAT,-0.248,-0.217,0.24,-0.438,-0.0677,0.346,-3.14,0.123,-0.124,0.0977

Sequence,uncleaved DNA left (log2) [1],uncleaved DNA left (log2) [2],uncleaved DNA left (log2) [3],uncleaved DNA left (log2) [4],uncleaved DNA left (log2) [5],uncleaved DNA left (log2) [6],uncleaved DNA left (log2) [7],uncleaved DNA left (log2) [8],uncleaved DNA left (log2) [9],uncleaved DNA left (log2) [10]
GCCAGAA,0.0253,0.037,0.28,0.617,0.00485,0.0282,0.0764,0.149,0.0259,0.0898
CCGAAAT,-0.0811,-0.0402,0.0516,-0.263,0.0559,-0.0309,-0.118,-0.104,0.0572,0.13
TATTCGA,-0.267,-0.108,-0.731,-1.09,-0.0744,-1.31,-0.114,-0.192,-0.0796,-0.218
TGAGAGT,0.205,0.166,0.258,0.475,0.0845,0.575,0.0801,0.18,0.0708,0.103
CGGTCCA,0.0949,0.164,0.287,-0.0266,0.102,0.32,-0.115,0.107,0.193,0.238
ATTCCCC,-1.59,-0.213,-0.00521,-0.177,-0.153,-0.309,-2.6,-0.0996,-0.0857,0.0617
CTGACAC,0.0334,-0.0422,-0.0062,0.305,-0.000367,-0.192,0.00728,-0.11,0.0259,0.121
TGATAAG,0.0645,0.125,-0.333,0.0761,0.1,-0.242,0.0788,0.13,0.127,0.0138
TGCAAGA,0.172,0.0858,0.009,-0.0642,0.0611,-0.861,0.218,0.0731,0.148,-0.00469
AATACAC,0.0344,0.0725,0.0186,-0.572,0.0208,-0.634,0.0857,0.108,-0.0355,0.0211
CCGAGTA,-0.0382,-0.0224,0.429,0.561,0.0285,0.764,-0.113,-0.0687,0.0123,0.125
TTGGGTA,-0.121,-0.142,-0.118,0.00783,-0.0389,-0.179,-0.0887,-0.237,-0.156,-0.232
CGCTGGG,0.116,-0.0275,-0.349,-0.318,0.00918,-0.465,0.187,0.0822,0.0501,-0.0487
CAGTCGC,-0.0156,-0.0469,-0.095,0.597,-0.0584,0.841,-0.587,-0.0298,0.0714,-0.132
GGTGTAT,0.199,0.184,0.797,1.5,0.0506,2.19,0.173,0.12,0.308,0.182
CTAGTTG,0.00312,-0.0136,-0.191,-0.214,0.107,-0.775,0.0651,-0.00793,-0.00702,-0.178
ACACCAG,-0.053,-0.0365,-0.608,-0.0612,-0.0298,-1.07,0.0907,-0.071,-0.0706,-0.12
ACGGCAG,-0.0875,-0.00931,-0.634,-0.396,0.00472,-0.871,0.166,0.00553,0.138,-0.154
GCCCTGC,0.052,0.185,-0.166,-0.00103,0.0376,-0.58,0.194,0.0902,0.108,-0.0242
CGGCATA,-0.0478,0.0054,0.226,0.943,-0.00451,1.16,-0.134,0.00653,0.00843,0.1

Sequence,uncleaved DNA left (log2) [1],uncleaved DNA left (log2) [2],uncleaved DNA left (log2) [3],uncleaved DNA left (log2) [4],uncleaved DNA left (log2) [5],uncleaved DNA left (log2) [6],uncleaved DNA left (log2) [7],uncleaved DNA left (log2) [8],uncleaved DNA left (log2) [9],uncleaved DNA left (log2) [10]
GAGCTTT,0.132,0.0494,0.149,-1.48,0.0371,1.02,-2.67,0.0351,0.063,0.135
TTGTCAT,-0.0406,0.0809,0.241,-0.0862,-0.0775,-0.0538,-0.967,-0.0161,0.188,0.141
AATTGAC,-0.0552,-0.161,-0.366,-0.26,0.0199,-1.09,0.0982,-0.0453,0.000444,-0.0685
TCCTGAG,-0.0253,-0.0119,0.022,0.824,-0.0955,0.779,0.0949,0.216,0.146,0.000903
CCATGGG,0.0403,-0.00163,-0.72,-0.501,0.0337,-1.15,0.103,0.0132,0.0371,-0.0833
AGACCAA,0.0368,0.0737,0.662,1.05,-0.0326,1.83,0.0453,0.051,0.168,0.113
CAGTACT,-3.7,-3.62,-2.21,-3.14,-3.6,-0.847,-3.98,-1.1,-0.225,-0.528
GCGTAGT,-0.3,0.151,0.201,0.31,-0.0626,0.516,-2.55,0.165,0.155,0.0901
CTTTGTC,-0.0673,-0.167,-0.372,-0.602,-0.0383,-1.12,-0.101,-0.182,0.00691,-0.21
AGCCCGC,-0.013,-0.0124,0.511,1.14,-0.0516,0.789,-0.0327,-0.0328,-0.128,0.077
CCCTACG,0.122,0.106,-0.742,-0.178,-0.0582,-0.639,0.129,0.114,0.163,0.0713
CGCATCT,-0.0244,-0.114,-0.3,-1.61,-0.148,-0.659,-0.254,-0.154,-0.087,-0.199
TGTCCTA,0.0202,0.0871,0.264,0.0319,-0.0152,0.598,-0.187,-0.112,-0.00469,0.083
AGAAATA,-0.0442,-0.0215,0.0415,-0.883,-0.0344,-0.21,-0.131,0.0336,0.0723,0.0168
TGGGACT,-0.0193,0.0399,0.888,2.05,0.0487,2.26,0.223,0.103,0.00362,0.248
AAGTGTG,0.0388,-0.0394,-0.55,-0.323,0.0782,-0.867,0.0139,-0.00362,0.0842,-0.00505
AGGACCA,0.0267,0.121,0.42,1.01,-0.00841,1.55,0.0825,0.0752,0.0237,0.162
CATAACA,0.032,-0.0238,-0.502,-2.54,-0.00058,-0.9,-0.105,-0.0468,0.106,0.00164
